Test results from patent US20250059139A1, “COMPOUNDS FOR TREATMENT OF CANCER” (THE JOHNS HOPKINS UNIVERSITY, priority 2021, published 2025).

Tested on: AHR protein in LNCaP cells
Assay: AHR translocation and downregulation in LNCaP cells (immunoblot)
Assay type: cell-based, human
Description: Western Blot Analysis. Analysis and quantification of protein expression via immunoblot was performed as previously described (Brennen 2021). All assays were performed with total cell lysates from an equal number (i.e., 100,000) of cells loaded per lane for accurate comparisons across cell lines and conditions.

Compound: COc1cccc2c1c(O)c(C(=O)N(C)c1ccc(C(F)(F)F)cc1)c(=O)n2C [TasQ, Tasquinimod]
- time to translocation of the AHR from the cytosol to the nucleus: < 30 min
